# Values joined by “and” are separate entries in the source; they are usually repeats but may differ in a detail not shown here. Equal values may be shown once. The whole screen tested about 360,000 compounds, of which about 2,600 (0.72%) were called active. The shares of active, inactive and inconclusive entries below differ from those in the screen. The call rests on the fitted dose curve; in most records, active means well fitted inhibition curve with a large enough effect; inconclusive means small, poorly fitted or top-dose-only effect; inactive means no such curve, though single readings can be large or run the other way. Potencies beside an inconclusive call are fits to weak or partial responses and may not hold up. Where a structure was tested more than once in an assay, its records may differ in their call.
# Experiment: Primary qHTS for Inhibitors of ATXN expression; further: nearly all actives have a fitted effect of over 55% in size
# Conditions: HEK-293 ATXN2-luciferase reporter, luminescence, 24 h; activity change, negative = inhibition: at 57 µM (top of the series)
# Outline: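 ATXN2-luciferase reporter cells (luciferase flanked by upstream and downstream ATXN2 gene portions) were treated 24 h at 37 °C with compounds at up to 57 uM. SteadyGlo luminescence gave expression; GF-AFC fluorescence gave viability.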
# On the % scale 0 is the no-effect control and ±100 the full control effect; potency means the concentration at half of the fitted maximal effect; tags describe the fitted curve by direction and shape.
SMILES,Potency,"activity change, negative = inhibition"
CN(C)CCCNC(=S)NCC(c1ccc(Cl)cc1Cl)c1c[nH]c2ccccc12 (stereo unspecified),active: 25.1 µM,–
Nc1nc2c(ncn2COC(CO)CO)c(=O)[nH]1,inactive and active: 24.3 µM,–
Cc1ccc(C(C)C)c(OCc2ccc(C(=O)N/N=C/c3ccc(O)cc3O)cc2)c1,active: 10 µM,–
COc1cc(C(=O)Nc2nc3ccccc3[nH]2)ccc1OC(F)F,"inconclusive: 39.8 µM [inhibitor, single point]",–
C=C1C(=O)O[C@@H]2[C@H]1[C@@H](OC(=O)/C(C)=C/C)C/C(C)=C\C(=O)/C=C(\C)[C@@H]2O,active: 6.31 µM,–
O=[N+]([O-])c1cc2c(cc1CN1CCN(c3ccc(F)cc3)CC1)OCO2,–,inconclusive: -41.1% [inhibitor]
CC(=O)c1[nH]c(C)c(C(=O)N2CCCC(Nc3ccc(C(C)C)cc3)C2)c1C (stereo unspecified),inactive,–
O=C(OCc1ccccc1)N(CCCCN(CCCNCc1ccccc1)C(=O)OCc1ccccc1)CCCNCc1ccccc1,"inconclusive: 35.5 µM [inhibitor, single point]",–
COc1ccc(C(=O)/C=C/c2cn(CC(O)CN3CCc4ccccc43)c3ccccc23)cc1OC (stereo unspecified),"inconclusive: 22.4 µM [inhibitor, partial curve, poor fit]",–
Cc1ccccc1C(=O)N1CCN(c2ccc(NC(=O)c3ccco3)cc2Cl)CC1,active: 31.6 µM,–
Nc1c(Cl)cc(N=Nc2ccccc2)cc1Cl,inactive,–
CC(=O)N/N=C/c1cc(C(C)(C)C)cc(/C=N/NC(C)=O)c1O,"inconclusive: 28.2 µM [inhibitor, partial curve, poor fit]",–
CC(=O)c1cn(CC(=O)Nc2cccc(C)c2C)c2ccccc12,inactive,–
CC(C)N(C(=O)[C@H]1C[C@H](CC(=O)NCCc2ccccn2)C(=O)N2CCc3c([nH]c4cc(-c5ccco5)ccc34)[C@]12C)C(C)C,"inconclusive: 35.5 µM [inhibitor, single point]",–
CCc1cc(SC#N)cc(CC)c1NC(=O)CCl,"inconclusive: 35.5 µM [inhibitor, single point]",–
CN1CCN(c2ccc(Nc3ccnc4cc(Cl)ccc34)cc2)CC1,active: 3.55 µM,–
COc1ccc(NS(=O)(=O)c2ccc3nc(COc4cccc5ccccc45)[nH]c3c2)cc1,"inconclusive: 25.1 µM [inhibitor, single point]",–
O=C(COc1ccccc1Cl)Nc1ccc(-c2nc3ccccc3s2)cc1,"inconclusive: 8.91 µM [inhibitor, single point]",–
O=C(Nc1ccc(N2CCCCC2)cc1)c1ccccn1,active: 1.78 µM,–
Cc1ccc2nc(SCC3CCCCO3)[nH]c2c1 (stereo unspecified),active: 11.2 µM,–
C=CCNC(=O)c1ccccc1NC(=O)c1ccc(Cl)c(S(=O)(=O)Nc2ccccc2)c1,"inconclusive: 39.8 µM [inhibitor, single point]",–
COc1cccc(-c2cccc(-c3nc(C(=O)NCc4ccc(Oc5ccccc5)cc4)cc4c3[C@H](CCO)N(S(=O)C(C)(C)C)C4)c2)c1 (stereo partly specified),"inconclusive: 35.5 µM [inhibitor, single point]",–
COc1cc(C(O)c2nc(-c3cccc(F)c3)cs2)ccc1F (stereo unspecified),inactive,–

SMILES,Potency,"activity change, negative = inhibition"
CC/C(=C\c1oc2cc3ccccc3cc2[n+]1CC)Nc1ccccc1,"inconclusive: 26.7 µM [inhibitor, single point]",–
COc1ccc2c(c1)CCc1c(C(=O)N3CC4(C)CC3CC(C)(C)C4)noc1-2 (stereo unspecified),"inconclusive: 20 µM [inhibitor, single point]",–
O=C(c1ccccc1)c1c[nH]c2ccccc12,inactive,–
N=c1n(CC(=O)c2ccc([N+](=O)[O-])cc2)c2ccccc2n1Cc1ccccc1Cl,"inconclusive: 35.5 µM [inhibitor, single point]",–
CCc1nc2ccc(C(=O)NCCc3ccccn3)cn2c1N(CC)Cc1cccc(Br)c1,"inconclusive: 25.1 µM [inhibitor, single point]",–
CC(C)OC(=O)CSc1nc(Cc2ccccc2)nc2ccccc12,"inconclusive: 42.3 µM [inhibitor, partial curve, poor fit]",–
COc1ccccc1C(=O)Nc1ccc2nc(SCCOc3ccccc3C)sc2c1,inactive,–
C=CCn1cccc(/C=C/C(=O)c2ccc(C(C)(C)C)cc2)c1=S,active: 25.1 µM,–
Cc1nnc2c3ccccc3c(-c3cccc4ccccc34)nn12,inactive,–
O=C(N/N=C/c1ccc(Br)s1)c1cccs1,inactive,–
CCCOc1ccc(C(=O)N2CCCC2C(=O)O)cc1 (stereo unspecified),inactive,–
CCCCOC(=O)c1cc(=O)[nH]c2ccccc12,inactive,–
C/C(Cl)=C\Cn1c(O)c(N=NC(N)=S)c2ccccc21,active: 23.8 µM,–
Cc1ccc(S(=O)(=O)N2CCN(c3ncnc4sccc34)CC2)cc1,"inconclusive: 10 µM [inhibitor, partial curve, poor fit]",–
C=CCC(C)(NCc1ccccc1)c1ccc(C)cc1 (stereo unspecified),"inconclusive: 3.55 µM [inhibitor, full curve, poor fit]",–
Cc1ccc(NC(=S)Nc2ccc(Cl)c(Cl)c2)c(OC(F)F)c1,"inconclusive: 31.6 µM [inhibitor, single point]",–
CCc1ccc2nc(N(CCN(CC)CC)C(=O)c3cccs3)sc2c1,inactive,–
Oc1ccc(-c2ccc(-c3cc(Nc4cccc(CNC5CC5)c4)n[nH]3)cc2)c(O)c1,active: 2.43 µM,–
Clc1ccc(-c2ccc(C=Nc3ccc(N4CCOCC4)cc3)o2)cc1,"inconclusive: 39.8 µM [inhibitor, partial curve, poor fit]",–
Cc1ccc(Cc2c(-c3ccc(Cl)cc3)nc3c(C)cc(Br)cn23)cc1,inactive,–
CCc1nc2c(OCc3cccc(Cl)c3)cccn2c1N(C)C(=O)Nc1ccccc1OC,"inconclusive: 39.8 µM [inhibitor, single point]",–
C=C(C)C1CC=C(C)/C(=N/NC(=O)CCC(=O)Nc2ccccc2Cl)C1 (stereo unspecified),"inconclusive: 39.8 µM [inhibitor, partial curve, poor fit]",–
CCOC(=O)C1CCN(CC(O)COCc2ccc3c(c2)OCO3)CC1 (stereo unspecified),inactive,–
